{
  "source": "PubChem BioAssay AID624296",
  "about": "(National Center for Advancing Translational Sciences (NCATS), 2012)",
  "note": "Several values for one entry are separate records, joined by “and”; a condition that tells them apart may be missing. Identical values can stand only once. Hit rate of the full screen: of about 350,000 compounds, about 9,900 (2.8%) were called active. Inconclusive means that the source gave no clear call. Such entries were picked first, then a sample of the others. Calls follow the shape of the dose curve; as a rule, active = well fitted activation curve with a large enough effect; inconclusive = small, poorly fitted or top-dose-only effect; inactive = no such curve, though single readings can be large or run the other way. Potencies of inconclusive entries are left out as doubtful fits. Where a structure was tested more than once in an assay, its records may differ in their call. Potency is read from the fitted curve at half-maximal effect; tags tell the direction and shape of the fitted curve.",
  "data": [
    {"assay": "A quantitative high throughput screen for small molecules that induce DNA re-replication in MCF 10a normal breast cells; also: nearly all actives have a fitted effect of over 50% in size; as to activity, positive = re-replication: % of control where 0% means no effect.", "details": "MCF 10A DNA re-replication, Hoechst nuclear intensity, 48 h; activity, positive = re-replication: at 46.1 µM (top of the series)", "values": [
      {"smiles": "CCc1ccc2oc(=O)cc(CN3CCCCC3C)c2c1", "note": "(stereo not drawn)", "Potency": "inconclusive [activator, single point]"},
      {"smiles": "Cc1ccc(OCCNC(=O)c2cccc(S(=O)(=O)NCc3ccccc3)c2)cc1", "Potency": "active: 6.51 µM"},
      {"smiles": "CCOc1cc(C(=O)Nc2cc(C)ccn2)cc(OCC)c1OCC", "Potency": "inconclusive [activator, partial curve, poor fit]"},
      {"smiles": "COc1cccc(S(=O)(=O)NCc2ccc(C(=O)Nc3cccc(Cl)c3)cc2)c1", "Potency": "inconclusive [activator, partial curve, poor fit]"},
      {"smiles": "CC(=O)NCCC(=O)NCc1ccc(F)cc1", "activity, positive = re-replication": "inactive: 0.151%"},
      {"smiles": "COc1ccc(OC)c(-n2c(C)cc(/C=C3\\C(=N)N4N=C(CC(=O)N5CCOCC5)SC4=NC3=O)c2C)c1", "Potency": "inconclusive [activator, single point]"},
      {"smiles": "O=C(CNc1cccc(S(=O)(=O)N2CCCCC2)c1)Nc1cccc(F)c1", "Potency": "inconclusive [activator, partial curve, poor fit]"},
      {"smiles": "O=C1c2ccccc2C(=O)N1COc1ccc(S(=O)(=O)N2CCOCC2)cc1[N+](=O)[O-]", "activity, positive = re-replication": "inactive: 2.03%"},
      {"smiles": "CC(C)(C)OC(=O)NCC(=O)Oc1cc2oc(=O)cc(-c3ccccc3)c2cc1Cl", "Potency": "active: 23.1 µM"},
      {"smiles": "COc1ccc2c(c1)c(CC(=O)Nc1ccccc1OC)c(C)n2C(=O)c1ccc(Cl)cc1", "Potency": "active: 16.4 µM"},
      {"smiles": "CCCC(NC(=O)CCc1c(C)c2cc3c4c(oc3c(C)c2oc1=O)CCCC4)C(=O)O", "note": "(stereo not drawn)", "Potency": "inconclusive [activator, partial curve, poor fit]"},
      {"smiles": "CCCc1cc(C(=O)Nc2ccc(C(=O)c3ccc(F)cc3)cc2)n(C)n1", "Potency": "inconclusive [activator, partial curve]"},
      {"smiles": "CCCCSc1cc(C)nc2ncnn12", "activity, positive = re-replication": "inactive: -4.01%"},
      {"smiles": "O=C(CCCNC(=O)c1ccc(Cl)cc1)OCc1cccc(Br)c1", "Potency": "inconclusive [activator, single point]"},
      {"smiles": "CCc1nc2ccc(C(=O)NCCCN3CCN(c4ccccc4F)CC3)cc2nc1CC", "Potency": "inconclusive [activator, partial curve, poor fit]"},
      {"smiles": "CCOc1ccc(N/C(C)=C\\C(=O)c2ccc3c(c2)OCCO3)cc1", "Potency": "inconclusive [activator, single point]"},
      {"smiles": "O=C1C=C(Nc2ccc(Cl)cc2Cl)CC(c2ccco2)C1", "note": "(stereo not drawn)", "Potency": "inconclusive [activator, full curve, poor fit]"},
      {"smiles": "CCOC(=O)Nc1cccc(OCC(=O)Nc2ccccc2OC)c1", "activity, positive = re-replication": "inactive: 28.4%"},
      {"smiles": "C=CCNc1nc(N(c2ccccc2)c2ccccc2)nc(-n2ccnc2)n1", "Potency": "inconclusive [activator, partial curve, poor fit]"},
      {"smiles": "CC(C)Nc1cc(C(C)(C)C)nc2c(-c3ccccc3)cnn12", "Potency": "inconclusive [activator, single point]"},
      {"smiles": "CCOc1cc(NC(=S)NCCCN2CCOCC2)c(OCC)cc1NC(=O)c1cccs1", "Potency": "inconclusive [activator, single point]"},
      {"smiles": "O=C(NC(=S)Nc1cccc2ncccc12)c1ccccc1", "activity, positive = re-replication": "inactive: 2.42%"},
      {"smiles": "Cc1ccc(-n2cc(C(=O)c3ccc(N4CCN(C)CC4)cc3)nn2)cc1Cl", "Potency": "active: 0.731 µM"},
      {"smiles": "COc1ccc(N(CC(=O)Nc2ccc(OC)c(OC)c2)S(=O)(=O)c2ccccc2)cc1Cl", "Potency": "inconclusive [activator, partial curve, poor fit]"},
      {"smiles": "CC1(C)C(c2ccccc2)=[N+]([O-])C2(CCCCC2=O)N1O", "note": "(stereo not drawn)", "Potency": "inconclusive [activator, single point]"},
      {"smiles": "O=C(CCCOc1ccccc1)Nc1cccnc1", "Potency": "inconclusive [activator, single point]"},
      {"smiles": "O=c1c2ccccc2c(/C=N/NS(=O)(=O)c2ccccc2)c(O)n1-c1ccccn1", "activity, positive = re-replication": "inactive: -9.03%"},
      {"smiles": "CC1Cc2ccccc2N1C(=O)COC(=O)CCc1nc2ccccc2c(=O)[nH]1", "note": "(stereo not drawn)", "Potency": "inconclusive [activator, single point]"},
      {"smiles": "CC(=O)c1ccc(N2CCN(C(=O)c3ccccc3SCC(=O)NCc3ccco3)CC2)c(F)c1", "activity, positive = re-replication": "inactive: 0.978%"},
      {"smiles": "CC(C)(C)C(=O)Cn1ncc(Cl)c(Cl)c1=O", "Potency": "active: 2.06 µM"},
      {"smiles": "COc1cc(CCNC(=O)c2cnn3ccccc23)cc(OC)c1OC", "Potency": "inconclusive [activator, single point]"},
      {"smiles": "C[C@H]1CN([C@@H](C)CO)C(=O)c2cccc(NC(=O)Nc3ccc(C(F)(F)F)cc3)c2O[C@@H]1CN(C)S(=O)(=O)c1ccccc1", "Potency": "inconclusive [activator, single point]"},
      {"smiles": "Cc1ccc(CN2CC(C(=O)N(CC(C)C)c3c(N)n(Cc4ccccc4)c(=O)[nH]c3=O)CC2=O)cc1", "note": "(stereo not drawn)", "activity, positive = re-replication": "inactive: 1.79%"},
      {"smiles": "O=C(CCC(=O)N(CC(=O)NC1CCCC1)Cc1cccs1)Nc1nccs1", "activity, positive = re-replication": "inactive: 2.11%"},
      {"smiles": "CN(C)S(=O)(=O)n1cc(/C=C(\\NC(=O)c2ccccc2)C(=O)N2CCCC2)c2ccccc21", "Potency": "inconclusive [activator, single point]"},
      {"smiles": "CSc1cnc2c(N)nc(N(C)C)nc2n1", "Potency": "inconclusive [activator, single point]"},
      {"smiles": "Cc1nn(-c2ccc(F)cc2)c(Cl)c1/C=C(\\CCC(=O)O)c1nc2ccccc2s1", "Potency": "active: 18.4 µM"},
      {"smiles": "CCOC(=O)C1C2C=CC3(CN(Cc4ccco4)C(=O)C13)O2", "note": "(stereo not drawn)", "Potency": "inconclusive [activator, single point]"},
      {"smiles": "CCCCc1oc2ccccc2c1C(=O)c1cc(I)c(OCCN(CC)CC)c(I)c1", "Potency": "active: 13 µM and active: 9.2 µM", "activity, positive = re-replication": "inactive: 2.33% [at 0.369 µM]"},
      {"smiles": "Cc1cc(=O)oc2cc(OCC(=O)Nc3nnc(C(C)C)s3)ccc12", "Potency": "inconclusive [activator, single point]"},
      {"smiles": "CC(=O)c1c(O)c2ccccc2n(C2CCCCC2)c1=O", "Potency": "inconclusive [activator, full curve, poor fit]"},
      {"smiles": "OC1COC(OCC2OC(OCc3ccccc3)C(O)C(O)C2O)C(O)C1O", "note": "(stereo not drawn)", "Potency": "inconclusive [activator, full curve, poor fit]"},
      {"smiles": "COc1ccccc1CCc1nnc(CCC(=O)NC(C)Cc2cccc(C)n2)o1", "note": "(stereo not drawn)", "Potency": "inconclusive [activator, partial curve, poor fit]"},
      {"smiles": "COc1ccccc1N(O)C1CC(=O)N(c2ccc(Br)cc2)C1=O", "note": "(stereo not drawn)", "Potency": "inconclusive [activator, partial curve, poor fit]"},
      {"smiles": "COc1ccc(Cn2c(O)c(/C=N/NC(=O)c3cccnc3)c3ccccc3c2=O)cc1", "Potency": "inconclusive [activator, single point]"},
      {"smiles": "C[C@H](CO)N1C[C@H](C)[C@@H](CN(C)C(=O)Nc2ccc(C(F)(F)F)cc2)Oc2ccc(NC(=O)CCC(F)(F)F)cc2C1=O", "activity, positive = re-replication": "inactive: -4.46%"},
      {"smiles": "Nc1nc2ccccc2n1/N=C/c1ccc(-c2ccccc2)o1", "Potency": "inconclusive [activator, single point]"},
      {"smiles": "Cc1cc(C(=O)CCC(=O)NCC(=O)Nc2c(C)cccc2C)c(C)s1", "Potency": "inconclusive [activator, full curve, poor fit]"},
      {"smiles": "O=C(CN1C(=O)CCS(=O)(=O)c2ccccc21)Nc1ccc(Cl)cc1", "activity, positive = re-replication": "inactive: 2.72%"},
      {"smiles": "O=C(Nc1ccc(N2CCN(C(=O)c3ccccc3)CC2)c(Cl)c1)c1ccco1", "Potency": "inconclusive [activator, single point]"},
      {"smiles": "N#CC(c1ccccc1)N(CCCCl)C(=O)c1ccccc1", "note": "(stereo not drawn)", "Potency": "inconclusive [activator, partial curve, poor fit]"},
      {"smiles": "Cc1nc(SCC(=O)NC2CCCC2)c2c(C)c(C)sc2n1", "Potency": "inconclusive [activator, single point]"},
      {"smiles": "Cn1c(=O)[nH]c(=O)c2c1[nH]c(=S)n2CCCc1ccccc1", "Potency": "inconclusive [activator, full curve, poor fit]"},
      {"smiles": "COc1ccc2c(c1)CC/C(=C\\c1ccc(OC)c(Cn3nc(C)cc3C)c1)C2=O", "Potency": "inconclusive [activator, full curve, poor fit]"},
      {"smiles": "CCOc1ccc(CCNC(=O)CCC(=O)N2CCOc3ccccc32)cc1OCC", "activity, positive = re-replication": "inactive: 3.59%"},
      {"smiles": "CC(C)(CN1CCc2ccccc2C1)NS(=O)(=O)c1ccc(Cl)cc1", "Potency": "inconclusive [activator, partial curve, poor fit]"},
      {"smiles": "C=CCSC(=S)NC1CCS(=O)(=O)C1", "note": "(stereo not drawn)", "Potency": "inconclusive [activator, single point]"},
      {"smiles": "CC(C)(C)c1ccc(C(=O)NCCn2c(N)c(C#N)c3nc4ccccc4nc32)cc1", "Potency": "active: 7.31 µM"},
      {"smiles": "Cc1ccc(N(CC(=O)NCc2ccc(F)cc2)C(=O)c2csnn2)c(C)c1", "Potency": "inconclusive [activator, partial curve, poor fit]"},
      {"smiles": "CC[C@]1(C(=O)OC)[C@H]2C(=O)N(C)C(=O)[C@H]2[C@H]2CN=C(SC)N21", "activity, positive = re-replication": "inactive: 9.52%"},
      {"smiles": "CCCCOC(=O)Cn1c(-c2ccccc2)nc2ccccc2c1=O", "Potency": "inconclusive [activator, single point]"},
      {"smiles": "COc1ccc(CNC(=S)N/N=C(/C)c2ccccc2)cc1", "activity, positive = re-replication": "inactive: 6.65%"},
      {"smiles": "COc1ccc(NC(=O)CSCC(=O)Nc2ccccc2N2CCCC2)cc1", "activity, positive = re-replication": "inactive: 2.68%"},
      {"smiles": "O=C(O)c1cc(-c2ccc3c(c2)OCO3)nc2ccccc12", "activity, positive = re-replication": "inactive: 9.69%"},
      {"smiles": "Cc1ccc(S(C)(=O)=O)cc1C(=O)Nc1cccc(S(=O)(=O)N2CCCCCC2)c1", "activity, positive = re-replication": "inactive: 3.67%"},
      {"smiles": "CC(C)(C)CC(C)(C)NC(=O)/C=C/C(=O)O", "activity, positive = re-replication": "inactive: -7.6%"},
      {"smiles": "CC(C)CCN(C(=O)c1csnn1)C(C(=O)NC1CCCCC1)c1ccc(F)cc1", "note": "(stereo not drawn)", "activity, positive = re-replication": "inactive: 1.92%"}
    ]}
  ]
}
